Among the data in the antibiotic and cytotoxicity screens of Wong et al. (2023) are cytotoxicity call values, retold here.

The other results are listed elsewhere or left out.

This assay relates to HSkMC (human skeletal muscle cells). The experiment in a line: cytotoxicity call (relative viability < 0.9). To be noted: 10 µM.
`C[C@H](CO)N1C[C@H](C)[C@H](CN(C)Cc2ccc(Oc3ccccc3)cc2)Oc2c(NC(=O)Nc3ccc4c(c3)OCO4)cccc2C1=O`: the cytotoxicity call is “inactive”.

As to `C[C@@H]1CCCCO[C@@H](CN(C)Cc2ccncc2)[C@H](C)CN([C@@H](C)CO)C(=O)c2cc(NC(=O)Nc3ccc(C(F)(F)F)cc3)ccc2O1`, the cytotoxicity call is “inactive”.

With `C[C@H](CO)N1C[C@H](C)[C@@H](CN(C)S(=O)(=O)c2cccs2)Oc2ccc(NC(=O)Cc3ccccc3)cc2CC1=O`, the cytotoxicity call is “inactive”.

On to `C=C(C)C1CCC2(C)CCC3(C)C(CCC4C5(C)CCC(OC(C)=O)C(C)(C)C5CCC43C)C12` (stereo not given), for which the cytotoxicity call is “inactive”.

In the case of `C[C@H]1CCCCO[C@H](CN(C)S(=O)(=O)c2ccc(F)cc2)[C@@H](C)CN([C@@H](C)CO)C(=O)c2cc(NC(=O)Nc3ccc4c(c3)OCO4)ccc2O1`, the cytotoxicity call was “inactive”.

On to `C[C@@H]1CN([C@@H](C)CO)C(=O)c2cc(NC(=O)Nc3cccc4ccccc34)ccc2O[C@@H](C)CCCCO[C@H]1CN(C)C(=O)C1CCCCC1`, for which the cytotoxicity call was “inactive”.

As for `C[C@@H]1CCCCO[C@@H](CN(C)Cc2ccccc2)[C@@H](C)CN([C@@H](C)CO)C(=O)c2cc(NS(=O)(=O)c3ccccc3)ccc2O1`, the cytotoxicity call was “inactive”.

Turning to `C[C@H](CO)N1C[C@H](C)[C@@H](CN(C)Cc2ccc(-c3ccccc3)cc2)Oc2ccc(NC(=O)NC3CCCCC3)cc2CC1=O`, the cytotoxicity call is “inactive”.

Take `Cc1ccc(S(=O)(=O)N(C)C[C@@H]2Oc3ncc(C#CC4(O)CCCC4)cc3C(=O)N([C@@H](C)CO)C[C@H]2C)cc1`: the cytotoxicity call was “inactive”.

As for `CCN(CC)CCc1nc(-c2ccccc2)no1.O=C(O)CC(O)(CC(=O)O)C(=O)O`, the cytotoxicity call is “inactive”.

On to `COC1C(O)CC(=O)OC(C)CC=CC=CC(OC2CCC(N(C)C)C(C)O2)C(C)CC(CC=O)C1OC1OC(C)C(OC2CC(C)(O)C(O)C(C)O2)C(N(C)C)C1O` (stereo not given), for which the cytotoxicity call is “inactive”.

With `Cc1cc(-c2ccc(NN=C3C=Cc4c(S(=O)(=O)O)cc(S(=O)(=O)O)c(N)c4C3=O)c(C)c2)ccc1NN=C1C=Cc2c(S(=O)(=O)O)cc(S(=O)(=O)O)c(N)c2C1=O`, the cytotoxicity call was “inactive”.

On to `CCn1nnnc1NCc1cccn1C`, for which the cytotoxicity call is “inactive”.

In the case of `C[C@H](CO)N1C[C@H](C)[C@@H](CN(C)Cc2ccc(-c3ccccc3)cc2)Oc2ccc(NC(=O)C3CCCCC3)cc2C1=O`, the cytotoxicity call is “inactive”.

Regarding `C[C@@H]1CN([C@@H](C)CO)C(=O)c2cc(NC(=O)CCCCCC(=O)Nc3ccccc3N)ccc2O[C@@H]1CN(C)S(=O)(=O)c1cn(C)cn1`, the cytotoxicity call is “inactive”.

For `C[C@@H]1CN([C@@H](C)CO)C(=O)c2cccc(NC(=O)Nc3ccc(C(F)(F)F)cc3)c2O[C@@H]1CN(C)Cc1ccc(Oc2ccccc2)cc1`, the cytotoxicity call is “active”.

As to `C[C@@H]1CCCCO[C@H](CN(C)C(=O)Nc2ccc(C(F)(F)F)cc2)[C@H](C)CN([C@H](C)CO)C(=O)c2cc(NC(=O)Nc3cccc4ccccc34)ccc2O1`, the cytotoxicity call was “inactive”.

Regarding `O=C(C[C@H]1CC[C@@H]2[C@H](COC[C@@H](O)CN2S(=O)(=O)c2ccccc2)O1)N[C@H]1CCN(Cc2ccccc2)C1`, the cytotoxicity call was “inactive”.

For `O=C1C=C2CC3(O)COc4c(ccc(O)c4O)C3=C2C=C1O` (stereo not given), the cytotoxicity call is “inactive”.

As for `NCC(=O)O`, the cytotoxicity call was “inactive”.

`O=C(C[C@H]1C=C[C@@H](NC(=O)c2cccc(F)c2)[C@H](CO)O1)NCCN1CCCC1`: the cytotoxicity call was “inactive”.

As to `CC(C)(C)OC(=O)NC(=NCCn1cc(-c2cccc(/C=C/C(=O)NO)c2)nn1)NC(=O)OC(C)(C)C`, the cytotoxicity call is “inactive”.

With `C[C@@H]1CN([C@@H](C)CO)C(=O)c2cc(NC(=O)NC3CCCCC3)ccc2O[C@@H](C)CCCCO[C@H]1CN(C)C(=O)Nc1ccc2c(c1)OCO2`, the cytotoxicity call is “active”.

For the compound `CC(C)NC(=O)N(C)C[C@@H]1Oc2ccc(NS(=O)(=O)c3cn(C)cn3)cc2CC(=O)N([C@H](C)CO)C[C@H]1C`, the cytotoxicity call was “inactive”.

With `COc1cccc(NC(=O)N[C@H]2C=C[C@@H](CC(=O)N3CCOCC3)O[C@H]2CO)c1`, the cytotoxicity call was “inactive”.

Turning to `CCCCCCCCCCCC(=O)OCN1C(=O)CCc2ccc(OCCCCN3CCN(c4cccc(Cl)c4Cl)CC3)cc21`, the cytotoxicity call is “inactive”.

On to `C[C@H]1CCCCO[C@@H](CN(C)C(=O)Nc2ccccc2)[C@@H](C)CN([C@@H](C)CO)C(=O)c2cc(NC(=O)Nc3ccc(C(F)(F)F)cc3)ccc2O1`, for which the cytotoxicity call is “inactive”.

On to `CC(C)C#Cc1ccc2c(c1)O[C@@H](CN(C)C(=O)c1cccc(F)c1)[C@H](C)CN([C@H](C)CO)S2(=O)=O`, for which the cytotoxicity call is “inactive”.

Regarding `COc1cc(CO)cc(I)c1O[C@H]1C=C(C(=O)NCCO)C[C@@H](NC2CCCCCC2)[C@@H]1O`, the cytotoxicity call is “inactive”.

For the compound `Cc1cc2nc3c(=O)[nH]c(=O)nc-3n(CC(O)C(O)C(O)CO)c2cc1C` (stereo not given), the cytotoxicity call was “inactive”.

As to `C=CCOC(=O)[C@@H]1[C@H]2C(=O)O[C@H](c3ccccc3)[C@H](c3ccccc3)N2[C@H](c2ccc(OCCOC(=O)[C@H]3C[C@H]4C(=O)NCC(=O)N4[C@H]3c3ccc(O)cc3)cc2)[C@@]12C(=O)Nc1ccc(I)cc12`, the cytotoxicity call is “inactive”.

As to `C[C@@H]1CN([C@@H](C)CO)S(=O)(=O)c2ccc(C3=CCCC3)cc2O[C@@H]1CN(C)C(=O)Cc1ccncc1`, the cytotoxicity call is “inactive”.

Regarding `C[C@H](CO)N1C[C@H](C)[C@@H](CN(C)CC2CCCCC2)OCCCC[C@H](C)Oc2ccc(NS(=O)(=O)c3ccc(Cl)cc3)cc2C1=O`, the cytotoxicity call was “inactive”.

As for `COc1ccc(S(=O)(=O)N(C)C[C@@H]2OCCCC[C@@H](C)Oc3ccc(NC(=O)Nc4cccc5ccccc45)cc3C(=O)N([C@@H](C)CO)C[C@H]2C)cc1`, the cytotoxicity call was “inactive”.

`C[C@H]1CCCCO[C@@H](CN(C)C(=O)c2ccccc2)[C@@H](C)CN([C@@H](C)CO)C(=O)c2cc(NC(=O)NC3CCCCC3)ccc2O1`: the cytotoxicity call is “inactive”.

Turning to `Cc1noc(C)c1NC(=O)Nc1ccc2c(c1)C(=O)N([C@H](C)CO)C[C@@H](C)[C@@H](CN(C)Cc1ccccc1)OCCCC[C@@H](C)O2`, the cytotoxicity call was “inactive”.

As to `Cc1noc(C)c1S(=O)(=O)Nc1ccc2c(c1)C(=O)N([C@@H](C)CO)C[C@@H](C)[C@H](CN(C)S(=O)(=O)c1ccc(F)cc1)O2`, the cytotoxicity call was “inactive”.

On to `C[C@@H]1CN([C@H](C)CO)C(=O)c2cc(C#CCc3ccccc3)cnc2O[C@H]1CN(C)CC1CCOCC1`, for which the cytotoxicity call was “inactive”.

As to `C[C@@H]1CN([C@@H](C)CO)C(=O)c2cc(NC(=O)C3CCCCC3)ccc2O[C@@H](C)CCCCO[C@H]1CN(C)C(=O)c1ccncc1`, the cytotoxicity call was “inactive”.

Consider `O=C(CN1CCOCC1)NCC[C@H]1CC[C@@H](NC(=O)Cc2ccccn2)[C@H](CO)O1`, for which the cytotoxicity call is “inactive”.
